# Test results: US4086345A, “Product and method for combatting swine dysentery” (Istituto Chemioterapico Italiano, priority 1977, dated 1978)
# Experiments:
# [1] = test system: five strains of Vibrio cholerae; assay: Effect on five strains of Vibrio cholerae
# [2] = test system: Treponema hyodysenteriae; assay: In vitro test against Treponema hyodysenteriae (MIC, MBC); conditions: Brachyspira hyodysenteriae; for MIC: read-out: minimum inhibitory concentration
# [3] = Subacute toxicity in female rats; conditions: 2 g/kg/day
# [4] = Acute toxicity in female mice; format: in vivo, mouse
# [5] = Teratogenetic study in the rat; conditions: 250 mg/kg/day oral, m±SE
# [6] = Acute toxicity in the rabbit; format: in vivo; conditions: esophageal
# [7] = Chronic toxicity in the female mouse; conditions: for Body Weight, Termination / Dead/Treated: 18 weeks; for Body Weight, Termination / Body Weight, Start: m±SE; for Dead/Treated: gastric gavage
# [8] = Acute toxicity in the rat; conditions: for Dead/Treated within 7 days: Cumulative data regardless of sex
# [9] = Teratogenetic study in the mouse; conditions: 250 mg/kg/day oral
# [10] = Subacute toxicity in the mouse; conditions: 15 days
# [11] = First Experiment, female, esophageal, 4000 mg/kg, m±SEM
# [12] = First Experiment, male, endoperitoneal, 500 mg/kg, m±SEM
# [13] = First Experiment, male, esophageal, 4000 mg/kg, m±SEM
# [14] = Second Experiment, female, esophageal, 4000 mg/kg, ± SE
# [15] = Second Experiment, female, intraperitoneal, 500 mg/kg, ± SE
# [16] = Second Experiment, male, esophageal, 4000 mg/kg, ± SE
structure (smiles),measurement,setting,value
"Cc1cc(C=Cc2c[n+]([O-])c3ccccc3[n+]2[O-])nc(N)n1 [CO-2, 2-[2-(2-amino-6-methyl-4-pyrimidinyl)ethenyl]-quinoxaline 1,4-dioxide]",Growth of the five Vibrio cholerae strains,[1]; 100 μg/ml,only marginal growth of the remaining two
same,MBC,[2]; read-out: minimum bacteriocidal concentration,< 1 µg/mL
same,MIC,[2],~0.1 µg/mL
"Nc1nccc(C=Cc2c[n+]([O-])c3ccccc3[n+]2[O-])n1 [CO-1, 2-[2-(2-amino-4-pyrimidinyl)ethenyl]-quinoxaline 1,4-dioxide]","Average Percent Weight of Fresh Organs, Kidneys","[3]; 21 days, m±SE, 5 animals",1.04±03%
same,"Average Percent Weight of Fresh Organs, Liver","[3]; 21 days, m±SE, 5 animals",4.54 ± 0.10%
same,"Average Percent Weight of Fresh Organs, Lung","[3]; 21 days, m±SE, 5 animals",1.07±0.09%
same,"Body Weight, Termination","[3]; gastric gavage, 21 days, m±SE",210.6 ± 9.6 g
same,Dead/Treated,"[3]; gastric gavage, 21 days, death caused by a mistake in esophagus incannulation",1/6
same,"Body Weight, Start","[3]; gastric gavage, m±SE",204.1 ± 2.0 g
same,Dead/Treated Animals after 7 days,"[4]; 250 mg/kg, endoperitoneal",0/18
same,Dead/Treated Animals after 2 days,"[4]; 1000 mg/kg, endoperitoneal",6/6
same,Dead/Treated Animals after 7 days,"[4]; 1000 mg/kg, endoperitoneal",6/6
same,Dead/Treated Animals after 4 days,"[4]; 1000 mg/kg, esophageal",0/12
same,Dead/Treated Animals after 1 day,"[4]; 2000 mg/kg, endoperitoneal",6/6
same,Dead/Treated Animals after 7 days,"[4]; 2000 mg/kg, endoperitoneal",6/6
same,Dead/Treated Animals after 4 days,"[4]; 2000 mg/kg, esophageal",0/12
same,Dead/Treated Animals after 2 days,"[4]; 4000 mg/kg, esophageal",1/12
same,Body Weight of Fetuses,[5],7.08 ± 0.19 g
same,No. of Living Fetuses per Delivery,[5],10.8±0.86
same,"Body Weight, Start",[6]; 500 mg/kg,2000 to 2100 g
same,"Body Weight, Start","[6]; 1000 mg/kg, m±SE",2037 ± 104.3 g
same,"Body Weight, Termination","[6]; 1000 mg/kg, m±SE",1922.5 ± 71.5 g
same,"dead out of treated animals, within 4 days (footnote)",[6]; 2000 mg/kg,two dead out of seven treated animals
same,"Body Weight, Termination",[7]; 250 mg/kg/day,26.7 ± 0.7 g
same,Dead/Treated,[7]; 250 mg/kg/day,0/10
same,"Body Weight, Start",[7]; 250 mg/kg/day,27.3+0.5 g
same,"Body Weight, Termination",[7]; 500 mg/kg/day,30.0 ± 0.7 g
same,Dead/Treated,[7]; 500 mg/kg/day,2/10
same,"Body Weight, Start",[7]; 500 mg/kg/day,30.4 ± 0.9 g
same,Urine Amount,"[7]; 500 mg/kg/day, excreted by 6 animals in 6 hours",7 mL
same,Growth of the five Vibrio cholerae strains,"[1]; 10 μg/ml, after 48 hours",no growth of 3 of the organisms
same,Growth of the five Vibrio cholerae strains,[1]; 100 μg/ml,only marginal growth of the remaining two
same,Dead/Treated within 7 days,"[8]; esophageal, 4000 mg/kg",0/16
same,Dead/Treated within 7 days,"[8]; intraperitoneal, 500 mg/kg",4/16
same,"Body Weight, Start","[8]; First Experiment, female, endoperitoneal, 500 mg/kg, m±SEM",206.2 ± 8.7 g
same,"Body Weight, Start",[8]; [11],201.2 ± 4.2 g
same,"Body Weight, Termination",[8]; [11],238.2 ± 12.1 g
same,"Body Weight, Start",[8]; [12],234.0 ± 6.2 g
same,"Body Weight, Termination",[8]; [12],314.3 ± 10.3 g
same,"Body Weight, Start",[8]; [13],234.5 ± 13.8 g
same,"Body Weight, Termination",[8]; [13],288.7 ± 13.8 g
same,"Body Weight, Start",[8]; [14],252.0 ± 16.6 g
same,"Body Weight, Termination",[8]; [14],253.5 ± 12.1 g
same,"Body Weight, Start",[8]; [15],232.5 ± 5.9 g
same,"Body Weight, Termination",[8]; [15],218.2 ± 7.0 g
same,"Body Weight, Start",[8]; [16],222.5 ± 6.2 g
same,"Body Weight, Termination",[8]; [16],231.7 ± 15.7 g
same,"Body Weight, Start","[8]; Second Experiment, male, intraperitoneal, 500 mg/kg, ± SE",226.2 ± 6.8 g
same,Pregnant/Treated Animals,[9]; 3rd to 13th days,3/10
same,Body Weight of Fetuses,[9]; m±SE,1.42 ± 0.05 g
same,No. of Living Fetuses per Delivery,[9]; m±SE,10.3±0.6
same,Dead/Treated,"[10]; 500 mg/kg/day, gastric gavage",0/10
same,"Fresh Organ-to-Body Weight Ratio, Kidneys","[10]; 500 mg/kg/day, gastric gavage",1.5±0.1
same,"Fresh Organ-to-Body Weight Ratio, Liver","[10]; 500 mg/kg/day, gastric gavage",5.9±0.3
same,% Body Weight Change,"[10]; 500 mg/kg/day, gastric gavage, m+SE",-8.1±3.9%
same,% Body Weight Change,"[10]; 1 g/kg/day in H2O, oral",18.5±0.75%
same,% Body Weight Change,"[10]; 1 g/kg/day in adraganth gum, oral",16.27±1.31%
same,MIC,[2],0.1 µg/mL
